# Assay results published in the supplement of paper PMC12217912.
# Some of the results follow. Sequences were assembled here from the parent chain. Inactive controls read about 0.05.
# B1: TEV protease; numbered along this chain (parent)
# chain: MGESLFKGPRDYNPISSSICHLTNESDGHTTSLYGIGFGPFIITNKHLFRRNNGTLVVQSLHGVFKVKDTTTLQQHLVDGRDMIIIRMPKDFPPFPQKLKFREPQREERICLVTTNFQTKSMSSMVSDTSCTFPSGDGIFWKHWIQTKDGQCGSPLVSTRDGFIVGIHSASNFTNTNNYFTSVPKNFMELLTNQEAQQWVSGWRLNADSVLWGGHKVFMVKPEEPFQPVKEATQL
# Variants of: B1
# Test: raw area under fraction-flipped curve 0-4 h after induction (AUC4h, not background-subtracted), DNA-recorder readout of cleavage of the substrate (dimensionless); higher = more cleavage of the substrate by the protease variant
# Conditions: temperature: 34 °C; time window: 0-4 h after rhamnose induction
# Description: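 In vivo DNA recorder in E. coli TOP10(DE3) ΔrhaA at 34 °C. Each TEVp single-site mutant (parent TEVp 0) is paired with a single-site variant of the 7-mer TEVs (canonical ENLYFQ|S). The substrate sits between flexible linkers in a Bxb1-sfGFP-TEVs-SsrA fusion, so cleavage stabilises Bxb1 and speeds flipping of a recombination array, read by NGS. The value is the raw area under the fraction-flipped curve over 0-4 h after rhamnose induction (AUC4h), with ≥20 reads per time point. It is not background-subtracted; inactive controls average about 0.047.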
# 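Further: Bxb1 expression induced with 0.2% (w/v) L-rhamnose at OD600 near 0.5, cultures sampled hourly, flipped fraction per protease–substrate barcode pair counted by paired-end Illumina sequencing.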
Variant,area with substrate ENLYFQA,area with substrate ENLYFQC,area with substrate ENLYFQD,area with substrate ENLYFQG,area with substrate ENLYFQI,area with substrate ENLYFQL,area with substrate ENLYFQM,area with substrate ENLYFQN,area with substrate ENLYFQS,area with substrate ENLYFQH,area with substrate ENLYFQK,area with substrate ENLYFQR,area with substrate ENLYFQT,area with substrate ENLYFQV,area with substrate ENLYFQW,area with substrate ENLYFQY,area with substrate ENLYFQF,area with substrate ENLYFQP,area with substrate ENLYFQQ,area with substrate ENLYFQE
MGESLFKGPRDYNPISSSICHLTNESDGHTTSLYGIGFGPFIITNKHLFRRNNGTLVVQSLHGVFKVKDTTALQQHLVDGRDMIIIRMPKDFPPFPQKLKFREPQREERICLVTTNFQTKSMSSMVSDTSCTFPSGDGIFWKHWIQTKDGQCGSPLVSTRDGFIVGIHSASNFTNTNNYFTSVPKNFMELLTNQEAQQWVSGWRLNADSVLWGGHKVFMVKPEEPFQPVKEATQL [T72A],0.113,0.115,0.0842,0.115,0.0591,0.0426,0.0886,0.0747,0.105,–,–,–,–,–,–,–,–,–,–,–
MGESLFKGPRDYNPISSSICHLTNESDGHTTSLYGIGFGPFIITNKHLFRRNNGTLVVQSLHGVFKVKDTTVLQQHLVDGRDMIIIRMPKDFPPFPQKLKFREPQREERICLVTTNFQTKSMSSMVSDTSCTFPSGDGIFWKHWIQTKDGQCGSPLVSTRDGFIVGIHSASNFTNTNNYFTSVPKNFMELLTNQEAQQWVSGWRLNADSVLWGGHKVFMVKPEEPFQPVKEATQL [T72V],0.089,–,–,0.0923,0.0611,0.0627,0.0811,0.0736,0.097,0.0865,0.0582,0.064,0.0674,0.0487,0.0699,0.0862,–,–,–,–
MGESLFKGPRDYNPISSSICHLTNESDGHTTSLYGIGFGPFIITNKHLFRRNNGTLVVQSLHGVFKVKDTTGLQQHLVDGRDMIIIRMPKDFPPFPQKLKFREPQREERICLVTTNFQTKSMSSMVSDTSCTFPSGDGIFWKHWIQTKDGQCGSPLVSTRDGFIVGIHSASNFTNTNNYFTSVPKNFMELLTNQEAQQWVSGWRLNADSVLWGGHKVFMVKPEEPFQPVKEATQL [T72G],0.0792,0.0864,–,0.0814,0.0579,–,0.086,0.0682,0.0919,–,0.0693,0.0569,0.0663,–,–,0.0613,0.0848,0.0432,0.0679,–
MGESLFKGPRDYNPISSSICHLTNESDGHTTSLYGIGFGPFIITNKHLFRRNNGTLVVQSLHGVFKVKDTTSLQQHLVDGRDMIIIRMPKDFPPFPQKLKFREPQREERICLVTTNFQTKSMSSMVSDTSCTFPSGDGIFWKHWIQTKDGQCGSPLVSTRDGFIVGIHSASNFTNTNNYFTSVPKNFMELLTNQEAQQWVSGWRLNADSVLWGGHKVFMVKPEEPFQPVKEATQL [T72S],0.0914,0.12,0.0791,–,–,–,–,0.0818,0.0973,–,0.0559,0.0574,0.0678,–,0.059,–,0.089,–,–,–
MGESLFKGPRDYNPISSSICHLTNESDGHTTSLYGIGFGPFIITNKHLFRRNNGTLVVQSLHGVFKVKDTTHLQQHLVDGRDMIIIRMPKDFPPFPQKLKFREPQREERICLVTTNFQTKSMSSMVSDTSCTFPSGDGIFWKHWIQTKDGQCGSPLVSTRDGFIVGIHSASNFTNTNNYFTSVPKNFMELLTNQEAQQWVSGWRLNADSVLWGGHKVFMVKPEEPFQPVKEATQL [T72H],0.0886,0.111,0.0592,0.0914,0.0597,0.0486,0.0896,0.0797,0.0944,0.0707,–,0.0828,–,0.0605,0.0642,0.0648,0.0767,0.0605,0.0796,–
MGESLFKGPRDYNPISSSICHLTNESDGHTTSLYGIGFGPFIITNKHLFRRNNGTLVVQSLHGVFKVKDTTRLQQHLVDGRDMIIIRMPKDFPPFPQKLKFREPQREERICLVTTNFQTKSMSSMVSDTSCTFPSGDGIFWKHWIQTKDGQCGSPLVSTRDGFIVGIHSASNFTNTNNYFTSVPKNFMELLTNQEAQQWVSGWRLNADSVLWGGHKVFMVKPEEPFQPVKEATQL [T72R],0.0768,0.107,–,0.119,–,0.0685,0.0835,0.0794,0.0996,0.0671,0.0529,0.0584,0.0509,–,0.0641,–,–,0.0573,–,–
MGESLFKGPRDYNPISSSICHLTNESDGHTTSLYGIGFGPFIITNKHLFRRNNGTLVVQSLHGVFKVKDTTTLQQHLVDPRDMIIIRMPKDFPPFPQKLKFREPQREERICLVTTNFQTKSMSSMVSDTSCTFPSGDGIFWKHWIQTKDGQCGSPLVSTRDGFIVGIHSASNFTNTNNYFTSVPKNFMELLTNQEAQQWVSGWRLNADSVLWGGHKVFMVKPEEPFQPVKEATQL [G80P],0.09,0.0797,–,0.144,0.0741,0.0599,–,–,0.0808,–,–,–,–,–,–,–,–,–,–,–
MGESLFKGPRDYNPISSSICHLTNESDGHTTSLYGIGFGPFIITNKHLFRRNNGTLVVQSLHGVFKVKDTTTLQQHLVDNRDMIIIRMPKDFPPFPQKLKFREPQREERICLVTTNFQTKSMSSMVSDTSCTFPSGDGIFWKHWIQTKDGQCGSPLVSTRDGFIVGIHSASNFTNTNNYFTSVPKNFMELLTNQEAQQWVSGWRLNADSVLWGGHKVFMVKPEEPFQPVKEATQL [G80N],0.0865,0.109,0.0923,–,0.0696,0.0478,0.103,0.0617,0.117,–,0.0652,0.0544,0.0689,0.0587,0.0773,0.0716,–,0.0367,–,0.0708
MGESLFKGPRDYNPISSSICHLTNESDGHTTSLYGIGFGPFIITNKHLFRRNNGTLVVQSLHGVFKVKDTTTLQQHLVDCRDMIIIRMPKDFPPFPQKLKFREPQREERICLVTTNFQTKSMSSMVSDTSCTFPSGDGIFWKHWIQTKDGQCGSPLVSTRDGFIVGIHSASNFTNTNNYFTSVPKNFMELLTNQEAQQWVSGWRLNADSVLWGGHKVFMVKPEEPFQPVKEATQL [G80C],0.0982,0.122,0.0642,–,–,0.0605,0.0819,0.0814,0.11,–,0.0613,0.0683,0.0492,–,0.0641,0.0879,0.08,–,–,–
MGESLFKGPRDYNPISSSICHLTNESDGHTTSLYGIGFGPFIITNKHLFRRNNGTLVVQSLHGVFKVKDTTTLQQHLVDTRDMIIIRMPKDFPPFPQKLKFREPQREERICLVTTNFQTKSMSSMVSDTSCTFPSGDGIFWKHWIQTKDGQCGSPLVSTRDGFIVGIHSASNFTNTNNYFTSVPKNFMELLTNQEAQQWVSGWRLNADSVLWGGHKVFMVKPEEPFQPVKEATQL [G80T],0.0928,0.0907,0.0729,0.0598,0.0584,0.0601,0.078,0.088,0.112,–,–,0.047,0.044,0.0641,0.0847,0.0756,0.0742,0.0613,–,–
MGESLFKGPRDYNPISSSICHLTNESDGHTTSLYGIGFGPFIITNKHLFRRNNGTLVVQSLHGVFKVKDTTTLQQHLVDKRDMIIIRMPKDFPPFPQKLKFREPQREERICLVTTNFQTKSMSSMVSDTSCTFPSGDGIFWKHWIQTKDGQCGSPLVSTRDGFIVGIHSASNFTNTNNYFTSVPKNFMELLTNQEAQQWVSGWRLNADSVLWGGHKVFMVKPEEPFQPVKEATQL [G80K],0.106,0.119,0.0651,0.1,0.0542,0.0727,0.0882,0.0677,0.103,–,0.0638,–,0.0723,0.0711,0.0832,–,–,–,0.0744,0.0562
MGESLFKGPRDYNPISSSICHLTNESDGHTTSLYGIGFGPFIITNKHLFRRNNGTLVVQSLHGVFKVKDTTTLQQHLVDGRDMIIIRQPKDFPPFPQKLKFREPQREERICLVTTNFQTKSMSSMVSDTSCTFPSGDGIFWKHWIQTKDGQCGSPLVSTRDGFIVGIHSASNFTNTNNYFTSVPKNFMELLTNQEAQQWVSGWRLNADSVLWGGHKVFMVKPEEPFQPVKEATQL [M88Q],0.118,0.118,–,0.106,0.0618,–,–,0.0834,0.103,–,–,0.0592,–,0.0719,–,–,0.0781,–,–,0.081
MGESLFKGPRDYNPISSSICHLTNESDGHTTSLYGIGFGPFIITNKHLFRRNNGTLVVQSLHGVFKVKDTTTLQQHLVDGRDMIIIREPKDFPPFPQKLKFREPQREERICLVTTNFQTKSMSSMVSDTSCTFPSGDGIFWKHWIQTKDGQCGSPLVSTRDGFIVGIHSASNFTNTNNYFTSVPKNFMELLTNQEAQQWVSGWRLNADSVLWGGHKVFMVKPEEPFQPVKEATQL [M88E],0.0689,–,–,–,–,0.0532,–,0.0527,0.0642,–,–,0.0548,0.0484,0.06,0.0342,–,–,–,–,–
MGESLFKGPRDYNPISSSICHLTNESDGHTTSLYGIGFGPFIITNKHLFRRNNGTLVVQSLHGVFKVKDTTTLQPHLVDGRDMIIIRMPKDFPPFPQKLKFREPQREERICLVTTNFQTKSMSSMVSDTSCTFPSGDGIFWKHWIQTKDGQCGSPLVSTRDGFIVGIHSASNFTNTNNYFTSVPKNFMELLTNQEAQQWVSGWRLNADSVLWGGHKVFMVKPEEPFQPVKEATQL [Q75P],0.0457,0.0562,0.0553,0.0618,0.0538,0.0413,0.0574,0.0574,0.0579,0.0568,0.0548,0.0686,0.0541,0.0624,0.0714,0.0464,0.0496,0.0396,0.0556,0.0513
MGESLFKGPRDYNPISSSICHLTNESDGHTTSLYGIGFGPFIITNKHLFRRNNGTLVVQSLHGPFKVKDTTTLQQHLVDGRDMIIIRMPKDFPPFPQKLKFREPQREERICLVTTNFQTKSMSSMVSDTSCTFPSGDGIFWKHWIQTKDGQCGSPLVSTRDGFIVGIHSASNFTNTNNYFTSVPKNFMELLTNQEAQQWVSGWRLNADSVLWGGHKVFMVKPEEPFQPVKEATQL [V64P],0.0975,0.107,–,0.0628,0.0631,–,0.0923,0.074,0.0964,–,–,0.0436,0.0626,0.0614,–,0.0693,–,–,–,–
MGESLFKGPRDYNPISSSICHLTNESDGHTTSLYGIGFGPFIITNKHLFRRNNGTLVVQSLHGLFKVKDTTTLQQHLVDGRDMIIIRMPKDFPPFPQKLKFREPQREERICLVTTNFQTKSMSSMVSDTSCTFPSGDGIFWKHWIQTKDGQCGSPLVSTRDGFIVGIHSASNFTNTNNYFTSVPKNFMELLTNQEAQQWVSGWRLNADSVLWGGHKVFMVKPEEPFQPVKEATQL [V64L],0.0996,0.0937,–,0.0779,0.0362,–,–,0.0613,0.102,–,0.077,0.045,0.0609,0.0579,0.058,0.0875,0.0576,–,–,0.0757
MGESLFKGPRDYNPISSSICHLTNESDGHTTSLYGIGFGPFIITNKHLFRRNNGTLVVQSLHGQFKVKDTTTLQQHLVDGRDMIIIRMPKDFPPFPQKLKFREPQREERICLVTTNFQTKSMSSMVSDTSCTFPSGDGIFWKHWIQTKDGQCGSPLVSTRDGFIVGIHSASNFTNTNNYFTSVPKNFMELLTNQEAQQWVSGWRLNADSVLWGGHKVFMVKPEEPFQPVKEATQL [V64Q],0.109,0.109,–,0.0865,–,0.0627,0.0801,–,0.0931,–,0.065,0.0644,–,–,–,0.0905,–,0.0633,–,–
MGESLFKGPRDYNPISSSICHLTNESDGHTTSLYGIGFGPFIITNKHLFRRNNGTLVVQSGHGVFKVKDTTTLQQHLVDGRDMIIIRMPKDFPPFPQKLKFREPQREERICLVTTNFQTKSMSSMVSDTSCTFPSGDGIFWKHWIQTKDGQCGSPLVSTRDGFIVGIHSASNFTNTNNYFTSVPKNFMELLTNQEAQQWVSGWRLNADSVLWGGHKVFMVKPEEPFQPVKEATQL [L61G],0.103,0.095,0.0646,0.114,0.0718,0.0611,0.0939,0.0829,0.102,0.106,0.0773,0.0621,0.0678,0.0609,0.0579,0.0898,0.0821,0.0565,–,–
